Each structure is given as a SMILES string. Among all 340,000 compounds or so, about 6,900 (2%) were called active. Cut-off read from the data, not from the text of the source: active = inhibition above about 30%; inactive = below that, where a call was filed. The entries are a selection whose mix differs from that of the whole data set. Where no call is shown, the source filed none.

UniProt P14416, sequence (P14416 whole entry, looked up): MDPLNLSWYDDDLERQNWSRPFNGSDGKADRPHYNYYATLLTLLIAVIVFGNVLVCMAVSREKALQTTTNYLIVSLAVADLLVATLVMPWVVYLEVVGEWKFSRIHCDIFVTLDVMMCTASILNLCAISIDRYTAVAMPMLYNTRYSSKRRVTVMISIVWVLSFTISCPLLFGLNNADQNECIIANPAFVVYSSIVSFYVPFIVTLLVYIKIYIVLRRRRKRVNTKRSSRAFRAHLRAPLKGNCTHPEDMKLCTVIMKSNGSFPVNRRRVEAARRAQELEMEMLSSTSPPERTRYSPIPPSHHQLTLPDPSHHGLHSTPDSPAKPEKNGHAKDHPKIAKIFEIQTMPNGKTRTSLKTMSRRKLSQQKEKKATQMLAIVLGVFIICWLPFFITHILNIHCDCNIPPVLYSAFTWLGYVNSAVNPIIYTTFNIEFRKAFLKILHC

The target in this test is D(2) dopamine receptor (Homo sapiens) (UniProt P14416). Put plainly: HTS Assay for Allosteric Antagonists of the Human D2 Dopamine Receptor: Primary Screen for Antagonists. Note: 0% is about no effect. Conditions: HEK293 TREx D2 cells, calcium flux, dopamine EC80; at 10 µM; stronger effect = higher value. The source says:
NIH Chemical Genomics Center [NCGC] NIH Molecular Libraries Probe Centers Network [MLPCN] MLPCN Grant: NS064831-01 Assay Submitter (PI): David Sibley Dopamine receptors (DARs) are involved in the etiology and/or therapy of a number of neuropsychiatric and endocrine disorders. For instance, all receptor-based antiparkinsonian drugs work via stimulating the D2 DAR subtype whereas all FDA-approved antipsychotic agents are antagonists of this receptor. […] There are three different types of allosteric modulators that we are seeking, two of which will stimulate or augment receptor signaling, allosteric agonists and potentiators, while the third, allosteric antagonists, will attenuate receptor signaling. The present primary screening assay measures compound antagonism after an EC80 addition of dopamine by tracking calcium flux in a […], inducible Hek293 Trex D2 cell line.
Freshly passaged cells are plated in 1536 well black, clear bottom plates at a density of 4000 cells/well in 3 ul of complete media containing 1x tetracycline inducer. After an overnight incubation at 30 C in 5% CO2, cells are loaded with 2 ul of the no wash Calcium Assay Kit (ABD Bioquest) and incubated at room temperature for 30 to 90 minutes. Agonist read: A 10 cycle (1 second/cycle) baseline measurement is taken and then the FDSS online 1536 pintool delivers 23 nl of compound library (as well as dopamine controls) to the plate. The plate is measured for kinetically at 1 cycle/sec for 180 seconds. Following the 180 second read, 1 ul of an EC80 (negative modulation assay) is delivered by an onboard pipette head. Measurements are taken kinetically for an additional 180 seconds.
With `CC(=O)c1ccc(Nc2cc(C)nc3nc(Cc4ccc(Cl)cc4)nn23)cc1`, the inhibition turned out to be 5.31%. Under `CCc1ccc2oc(C(=O)Nc3cc(C)ccc3C)cc(=O)c2c1` stands 13.5%. Under `O=C(Nc1cc2c(cc1C(=O)c1ccccc1Cl)OCCO2)c1ccccc1` stands -3.2%; under `CC(C)c1nn2c(=O)cc(COC(=O)c3ccccc3NC(=O)C3CCCCC3)nc2s1`, 6.41%. Under `CC1CCC(Nc2nc3c(-c4cccc(C(F)(F)F)c4)nnn3c3ccccc23)CC1` (stereo not drawn) stands -4.26%. With `Cc1ccc(C)c(N2CCN(C(=O)c3ccc4c(c3)N(Cc3ccc(F)cc3)C(=O)c3ccccc3S4=O)CC2)c1` (stereo not drawn), the inhibition was -4.79%. Turning to `CC(C)OC(=O)c1c(NC(=O)C2c3ccccc3Oc3ccccc32)sc2c1CCCC2`, the inhibition amounted to 0.214%. As to `Cc1cc(C)nc(N/N=C/c2ccccc2)n1`, the inhibition is active: 44.5%. Under `O=C(c1cccs1)N1CCN(Cc2cccc([N+](=O)[O-])c2)CC1` stands active: 38.1%; under `COc1ccccc1-c1noc(CCC(=O)Nc2ccc(C)cc2C)n1`, -3.34%. Under `Cc1ccc(NC(=O)C2CCCN(S(=O)(=O)c3cn(C(C)C)cn3)C2)c(C)c1` (stereo not drawn) stands 13.3%. Consider `CCCOc1ccc(CNC(=O)c2ccc(-n3c(C)cc4c3CCC(C)C4)cc2)cc1` (stereo not drawn), for which the inhibition is 8.75%.

Consider `Cc1cc2oc(C(=O)Nc3ccc(S(=O)(=O)Nc4ncccn4)cc3)cc(=O)c2cc1C`, for which the inhibition is -1.04%. Consider `Cc1ccc(NC(=O)Cn2ccn(-c3ccccc3)c(=O)c2=O)cc1`, for which the inhibition stood at 0.478%. Under `CCN(C(=O)CSc1nc2ccccc2[nH]1)c1ccccc1` stands 5.5%; under `Cc1ccc(Cn2cc(S(=O)(=O)c3cccc(Cl)c3)c(=O)c3cc(F)c(N4CCOCC4)cc32)cc1`, 3.24%; under `CCOc1ccc(C2NC(=O)c3c(COC)cc(C)nc3N2Cc2ccccc2)cc1OC` (stereo not drawn), -5.69%.

Turning to `COc1ccccc1C(=O)Nc1cc2c(cc1N1CCCC1)n(C)c(=O)c(=O)n2C`, the inhibition is -1.11%.

With `COc1cccc(NC(=O)C2=C(C)C(=O)OC23CCN(C(C)=O)CC3)c1`, the inhibition was -22.4%. Under `COc1cc2c(cc1OC)C(COc1ccc3c(C)cc(=O)oc3c1)N(C(=O)c1cc(Cl)ccc1OC)CC2` (stereo not drawn) stands -9.12%; under `CCC(=O)N1c2ccc(S(=O)(=O)NCc3ccc(F)cc3)cc2CC1C` (stereo not drawn), -2.34%. Under `CCN(CC)C(=O)Cn1nnc2sc(-c3ccccc3)cc2c1=O` stands -18.1%; under `Cc1ccc(CN2CCSc3ccc(C(=O)NCC(C)c4ccccc4)cc32)cc1` (stereo not drawn), -1.51%. Take `COC(=O)CN1C(=O)CSc2ccc(S(=O)(=O)Nc3cccc(C)c3C)cc21`: the inhibition was 2.14%. Consider `COc1cccc(OCCSc2nc(C)c(Cc3ccccc3)c(=O)[nH]2)c1`, for which the inhibition was -6.71%.

In the case of `Cc1ccc(N(C)C(=O)C2CCN(S(=O)(=O)c3c(C)noc3/C=C/c3c(C)cc(C)cc3C)CC2)cc1`, the inhibition is -27.4%. On to `COc1ccc(NC(=O)CCCN2C(=O)CCn3nc(-c4cn(C)c5ccccc45)cc32)cc1OC`, for which the inhibition is -15.5%. Under `Cc1cccc(N2CCN(S(=O)(=O)c3ccc4[nH]c5c(c4c3)CCCCC5)CC2)c1C` stands 3.4%; under `CCOC(=O)c1cccc(NC(=O)CC2C(=O)N(c3ccc(OC)cc3)C(=O)N2C2CCCC2)c1` (stereo not drawn), 13.1%. Consider `Cc1cccc(C(=O)NCC(=O)OCc2cc(=O)n3nc(C4CCCCC4)sc3n2)c1`, for which the inhibition was -2.75%.

Regarding `CCOC(=O)c1cccc(Nc2cc(-c3ccccc3)ncn2)c1`, the inhibition is -13.2%. Under `CCOC(=O)c1c(C)[nH]c(CCC(=O)NCc2ccccc2Cl)c1C` stands -22%. Under `Cc1c(Cl)cccc1NC(=O)c1ccc2snnc2c1` stands 2.02%.

Turning to `COc1ccccc1NC(=O)CCN1CCCCC1`, the inhibition was 1.36%. With `CCOc1ccc(OCC)c(NC(=O)C2CCN(c3nnc(-n4cccc4)s3)CC2)c1`, the inhibition is 6.72%. As to `CCOc1ccc(CN2CCC(Cc3ccccc3)CC2)cc1`, the inhibition is active: 30.4%. Under `Cc1nc(-c2ccccc2)sc1CCNC(=O)C(=O)Nc1ccc2c(c1)OCO2` stands -16.2%; under `Cc1ccc(NC(=O)C(C)n2nnc3sc4c(c3c2=O)CCCC4)cc1Cl` (stereo not drawn), -23.1%. For `CC(=O)c1ccc(NC(=O)CCCSc2nc(-c3ccco3)cc(C(F)(F)F)n2)cc1`, the inhibition was -14.5%. Take `CCc1ccc(NC(=O)CSc2nc3ccccc3c(=O)n2CCNC(C)=O)cc1`: the inhibition is -4.53%. For the compound `COc1ccc(OCC(=O)Nc2nnc3n2CCS3)cc1`, the inhibition stood at 12%. Under `FC(F)(F)Oc1ccc2c(c1)NC(c1ccncc1)=NC(c1cccs1)=N2` stands 16.3%. Under `O=C(COc1ccc(Cl)cc1)Nc1ccc(C(=O)OCc2cc(=O)n3ccsc3n2)cc1` stands -14.1%. Under `C=Cc1ccc(Cn2c(C)c(CNCCc3ccccc3C)c(C(=O)O)c2C)cc1` stands -3.17%; under `Cc1ccn2c(=O)c(C(=O)NCCCN3CCCCC3C)c(O)nc2c1` (stereo not drawn), -3.34%; under `CC1CCCC(C)N1C(=O)CN1C(=O)C(C)(C)Oc2ccc(C(=O)NC3CCCC3)cc21` (stereo not drawn), active: 33.3%. Regarding `Cc1ccc(NC(=O)CCSc2nc(-c3ccco3)cc(C(F)(F)F)n2)cc1F`, the inhibition came to 21.2%. Under `COc1ccc2oc(=O)c(C(=O)Nc3ccc(C(=O)O)cc3)cc2c1` stands -2.64%.

For `COc1ccc(Cl)cc1NC(=O)Cn1cc(C(=O)c2ccc(C)cc2)c(=O)c2ccc(C)nc21`, the inhibition is 4.24%. Under `CCOc1ccc(C(=O)Nc2cccc(C(=O)OCc3cc(=O)n4nc(C5CC5)sc4n3)c2)cc1` stands -20.4%; under `CCOC(=O)c1ccccc1NC(=O)CSc1nc(=O)[nH]c2c1CCC2`, 0.268%; under `COc1cc(NC(=O)CCCC(=O)OCC(F)(F)C(F)F)nc(OC)n1`, active: 52.2%.

On to `Cc1ccccc1CN1C(=O)C2(c3ccccc31)N(c1ccccc1)C(=O)CS2(=O)=O` (stereo not drawn), for which the inhibition turned out to be 4.39%.

With `COc1ccc(CCNC(=O)c2c(O)nc3ccccn3c2=O)cc1`, the inhibition was 9.13%. In the case of `COc1ccc(CNC(=O)C2CCCN(S(=O)(=O)c3ccc(-n4cnnn4)cc3)C2)cc1` (stereo not drawn), the inhibition is active: 36%. Regarding `Nc1nonc1-c1nc2ccccc2n1Cc1cccc(Cl)c1`, the inhibition was -3.93%. On to `CCOc1ccc(NC(=O)CC2C(=O)N(c3ccc(C)cc3)C(=O)N2CCC2=CCCCC2)cc1` (stereo not drawn), for which the inhibition was 8.36%. With `CC(C)c1ccc(NC(=O)c2ccc(F)c(S(=O)(=O)N3CCc4ccccc4C3)c2)cc1`, the inhibition was 10.6%. Under `Cc1ccc(CN(C(=O)c2ccccc2F)c2ccccn2)o1` stands -4.2%; under `Cc1ccccc1OCC(O)CN1CCN(CC(O)COc2ccccc2C)CC1` (stereo not drawn), active: 61.6%; under `O=C(c1cccn2c(=O)c3cc(Cl)ccc3nc12)N1CCN(c2ccccc2F)CC1`, -6.87%. For the compound `CC(=O)Nc1ccc(S(=O)(=O)N2CCC(c3nnnn3-c3ccccc3)CC2)cc1`, the inhibition is -11.6%. As to `CCOc1ccc(-n2nc(CO)c(C(=O)NCCCc3ccccc3)n2)cc1`, the inhibition is -2.49%.

Take `Cc1cc(C)cc(Oc2coc3cc(OCC(=O)NC4CCCCC4)ccc3c2=O)c1`: the inhibition was determined as 3.81%.

For the compound `COc1ccccc1N1CCN(Cc2cccs2)CC1`, the inhibition is active: 82.9%.

With `Cc1cc(N)c(-n2cc3c(c2-c2ccc(Br)cc2)c(=O)n(C)c(=O)n3C)cc1C`, the inhibition amounted to 7.73%.

Consider `O=C(O)CCCNc1cc(N2CCN(C3CCCCC3)CC2)c2noc3c2c1C(=O)c1ccccc1-3`, for which the inhibition was 3.32%. Consider `CCOc1ccc(-c2cc(C(=O)Nc3ccc(NC(C)=O)cc3)no2)cc1`, for which the inhibition was -12%. Under `CCOc1ccc(OCC)c(NC(=O)CC(C)n2nc(C)cc2C)c1` (stereo not drawn) stands 19.2%; under `Cc1ccc2onc(CNC(=O)NCc3cccc(Cl)c3)c2c1`, 13.3%; under `CCCS(=O)(=O)N1CC(=O)N(c2cc(C)ccc2C)C(C)(C(=O)NC2CCCCCC2)C1` (stereo not drawn), 18.2%. Under `CC(C)N1C(=O)C(O)(c2c[nH]c3ccccc23)c2ccccc21` (stereo not drawn) stands -8.07%; under `N#CC1=C(N)N(c2cccc(Cl)c2)C2=C(C(=O)CCC2)C1c1cc(CN2CCOCC2)cs1` (stereo not drawn), 26%. Consider `COc1cccc(-c2cn3c(n2)sc2cc(C(=O)NCCc4ccc(OC)c(OC)c4)ccc23)c1`, for which the inhibition was -0.751%. `CSc1cccc(NC(=O)CN2CCN(Cc3ccccc3C)S2(=O)=O)c1`: the inhibition is -7.34%. On to `Cc1cccc(N2C(=O)CS(=O)(=O)C23C(=O)N(Cc2c(F)cccc2Cl)c2ccccc23)c1` (stereo not drawn), for which the inhibition came out at 2.21%.

On to `OCCN1CCN(C(c2ccccc2Cl)c2sc3nc(-c4ccco4)nn3c2O)CC1` (stereo not drawn), for which the inhibition stood at 26.5%. As for `CCc1ccccc1NC(=O)Cn1nc(C(F)(F)F)c2c1CCCC2`, the inhibition is -1.67%.

As for `O=C(CCN1CCN(c2ccccc2F)CC1)Nc1cccc(F)c1`, the inhibition is active: 79.7%. Under `Clc1cccc(CNc2cc(-c3ccccc3)nc3nncn23)c1` stands 12.2%; under `Cc1cc(C)c(NC(=O)CCn2c(=O)c3cccn3c3cccnc32)c(C)c1`, -2.04%; under `CC1=Nc2ccccc2/C1=C\c1sc(Nc2ccc(C)cc2)nc1O`, active: 61%. Regarding `COc1ccccc1/C=N\Nc1cn[nH]c(=O)c1Cl`, the inhibition was active: 30.1%. Take `COc1ccc(CCC(=O)NC2CC(=O)N(c3cccc(F)c3)C2)cc1` (stereo not drawn): the inhibition came out at 24.7%.

As to `CCC(=O)n1nc(-c2cccnc2)nc1NCc1ccc(F)cc1`, the inhibition was 6.24%. On to `O=C(Cn1c(=O)oc2cc(S(=O)(=O)NCc3ccccc3)ccc21)Nc1ccc(F)c(Cl)c1`, for which the inhibition is 1.01%. Under `COc1ccc(NC(=O)CCCSc2nc(-c3ccco3)cc(C(F)(F)F)n2)c(OC)c1` stands 0.796%; under `COc1cccc(OCc2nc3ccccc3n2Cc2ccccc2C)c1`, -19.1%; under `CCCOC(=O)c1c(NC(=O)C2c3ccccc3Oc3ccccc32)sc2c1CCCC2`, -7.5%. For `COc1cc(NC(=O)Cn2nnc(-c3ccc(C(F)(F)F)cc3)n2)c(C(=O)O)cc1OC`, the inhibition is -27%. `CN(Cc1ccccc1)Cc1c[nH]c2ccccc12`: the inhibition is active: 34.6%. Under `O=C(COCc1cc(-c2cccs2)on1)NCc1ccc(Cl)cc1` stands -4.21%; under `COc1cccc(CNC(=O)Cc2csc3ccccc23)c1OC`, -4.97%; under `Cc1ccc(NC(=O)CSc2nc3[nH]c(=O)cc(O)c3s2)c(Br)c1`, active: 58.9%. With `COc1cccc(C2NC(=O)NC(C)=C2C(=O)Nc2ccc(C)cc2)c1OC` (stereo not drawn), the inhibition is active: 31%. As to `Cc1cc(C)c(NS(=O)(=O)c2ccc(-c3cnc(C4CC4)o3)cc2)c(C)c1`, the inhibition is 8.9%.

For the compound `CCc1ccc(NC(=O)Cn2ccn(Cc3ccccc3OC)c(=O)c2=O)cc1`, the inhibition was 4.69%. Consider `Cc1ccc(-n2nc(C)c3c(C)cc(=O)n(CC(=O)N4CCCc5ccccc54)c32)cc1`, for which the inhibition was -3.33%.

(Values after PubChem BioAssay AID485344 (National Center for Advancing Translational Sciences (NCATS), 2010).)
